# Source: the supplement of paper PMC11417369
# ± gives the standard deviation of the averaged measurements. This is one part of the list.
# System: PfAP2-I AP2 domain 3 (GST-tagged)
# Experiment: gcPBM binding intensity (ln(normalized median fluorescence intensity)); higher = stronger DNA binding
# Procedure, shortened: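 The highest Masliner-normalised natural-log median intensity across replicate spots of either probe orientation is reported as binding intensity. GST-tagged P. falciparum DNA-binding domains expressed in E. coli were applied for 1 h to an Agilent 4 × 180k array of primer-extended double-stranded 36-bp intergenic genomic probes plus negative controls, and bound protein was detected with Alexa488 anti-GST antibody and scanned at 488 nm.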
row,Sequence,gcPBM binding intensity (ln)
1,TATATCGCCTTCAAAAGTACTCATATAAAAAAAAAA [XGTACX_site7123],7.82 ± 0.32
2,ATATATTTATTTTGTGCACACAACGCAAACCTTTTA [CACACA_site3508],10.98 ± 0.092
3,AGTTCATATTTAAAAAGTACATATTTAAAAACTTCT [XGTACX_site4882],7.78 ± 0.46
4,TTTGAACTTTTATATACACACATTATTATAGTATAG [CACACA_site6851],7.72 ± 0.54
5,AAAAAAAAAAAAAAATGTACTTTTATTATTAATATA [XGTACX_site6357],8.04 ± 0.47
6,ATGCATATATTTATGTGTACATATATTTGTAGGGGG [XGTACX_site6063],9.675 ± 0.078
7,AAAAAAAACAGACACACACACACATATACATACATA [CACACA_site2665],7.76 ± 0.38
8,TTATAGTAATAATAATGTACATTTATACACATATAT [XGTACX_site1965],7.91 ± 0.51
9,ATATATATATATATAACATGCAAAGTTCAAAAAAAA [TGCATGCA_site943],9.35 ± 0.23
10,TTTTTTTTATTATAAATATATATATTATAAAACGAA [XGTACX_negctrl_site189],7.83 ± 0.11
11,TCAAAAAAAATTTTAGTGCATATTTTAGTCAAAACA,9.465 ± 0.035
12,CATTCTACAATAAAAAGTACATATATATATTATATA [XGTACX_site921],7.76 ± 0.31
13,AAATTAAATGATAGAGCATGCGCTAAAAATGAGAAA [TGCATGCA_site937],7.95 ± 0.76
14,ACACATATAATAGTTACATGCAAAAATACTTTTATT [TGCATGCA_site785],7.57 ± 0.71
15,TTTTTATAACATAAAAGTACATATTTTTAATTTAAT [XGTACX_site4394],7.45 ± 0.44
16,ATTTAAATAATATGTACACACATTTAAAAAGTTATA [CACACA_site7347],8.045 ± 0.049
17,TAATATTTCGTTAAGTTTTAAAGAAAAAAAAAAAAA [CACACA_negctrl_site1253],7.93 ± 0.91
18,AAATTAAAAATAATTACACACATAGAAAAGTTATAT [CACACA_site7137],7.74 ± 0.7
19,TTTTCAGAAAGACATGCATACAAAAATAAAAAAGAT [TGCATGCA_site814],8.61 ± 0.73

row,Sequence,gcPBM binding intensity (ln)
1,TTTTGCAAATATTACTGTACACAATCTCATATAATT [XGTACX_site2584],8.13 ± 0.58
2,AAAACTTTTAGTTATACACACAACATAGAAAATATT [CACACA_site6287],7.81 ± 0.69
3,AATGAGCGTTAAAAATGTACAGAAAATTGGAATTAT [XGTACX_site5743],8.11 ± 0.56
4,CTCCTACAAATATGTAGTACATTCAAAATAAATACC [XGTACX_site8207],8.19 ± 0.16
5,AACAATCAAATAGACACACACACACCCAAACATAAA [CACACA_site2757],8.125 ± 0.035
6,ATGCAATAAATATACACACACAAATCTATATTTATA [CACACA_site7179],8.04 ± 0.44
7,TTTTTTTTGTAGAATTGTACTTATAAAATATATATA [XGTACX_site2116],7.8 ± 0.23
8,AAAAAATGGATGATCACACACTTCATAAAAGTTGCA [CACACA_site7109],7.38 ± 0.47
9,AATTATTATATATATATATATATATATTTATATATT [GTGCAC_negctrl_site387],7.84 ± 0.48
10,AGTTCAAGGATTAAGACACACATATAAATAAATAAA [CACACA_site3662],7.97 ± 0.59
11,CATTATGTTGTAAATACACACATACCTATACATACA [CACACA_site6485],7.91 ± 0.59
12,TTTTTTTTTTTATCTGCACACCCTTTTGTGAATATT [CACACA_site789],9.26 ± 0.43
13,TCTGAGAATGATAAAAAAAAAAAAAATGAAAAATTA [CACACA_negctrl_site1478],7.18 ± 0.61
14,ACGATATTTTTGGTGACACACATATATATATATATA [CACACA_site126],9.33 ± 0.28
15,TATTTATTTATATTTACACACATTCATATAAATTCA [CACACA_site7628],8.1 ± 0.37
16,GTCACATTGTTATATTGTACAAATGTCGTTCTTTTT [XGTACX_site8098],7.75 ± 0.69
17,CACTATCAATATATATGTACATATATATATATATAT [XGTACX_site7854],9.25 ± 0.41
18,ATATAAAAATATATTAATATAAATAAATGGACATAT [XGTACX_negctrl_site488],8.05 ± 0.74
19,TAAATATATAAATACACACAAACATACATATATATA [CACACA_site4050],8.31 ± 0.58

row,Sequence,gcPBM binding intensity (ln)
1,CTTATACATTATTAACGTACATGTTATATGAATAAC [XGTACX_site5752],7.72 ± 0.16
2,AACATTATAGGACACACACACACATATATATATATA [CACACA_site4721],9.61 ± 0.24
3,TTTTTTTTTTTTTTTTTTTTTTTTAAATGCTTCTAA [TGCATGCA_negctrl_site253],8.04 ± 0.63
4,AACAAATAAGATAAATGACTTAACAAAAGAAAAAAG [CACACA_negctrl_site1409],7.52 ± 0.86
5,TTTTAATTATATTATGCACACACAATTGGAAAAAAA [CACACA_site8598],10 ± 0.57
6,GTAAAAAATATGAATACACACATAAAGGAAATAACA [CACACA_site1997],8.04 ± 0.83
7,AAAAAAAAAAAATTCACACACATATAAAAAATTAAG [CACACA_site728],7.62 ± 0.55
8,TAATATATAAGTATTTGTACATATTCATTCATCTAT [XGTACX_site2935],7.49 ± 0.49
9,TTTTTTTTTTTTTTTTTTTTTTTTGGGTCCCATACA [CACACA_negctrl_site913],8.1 ± 0.63
10,AAAAAAAAAAAAAAAAGTACAGACGTCAAAAAAAAA [XGTACX_site4817],8.76 ± 0.16
11,TTATAATAAATATGAAGTACTATAAATATGGTATAT [XGTACX_site5448],7.88 ± 0.42
12,ATCGCATAAAGACAAGAACACACATATATATTGTAG [CACACA_site9229],7.8 ± 0.62
13,AATAAATATAGGAATACACACAATATAAATGTATTG [CACACA_site3366],7.5 ± 0.62
14,CACTAAAATGGACACACACACACACCGATATATATA [CACACA_site6139],8.29 ± 0.51
15,ATTTGGCATAAACACACACACACACCCACCCACATA [CACACA_site8096],8.39 ± 0.67
16,TTTTTATTGAGAACAGTGCAAATAACAAAAAAAAAA,10.5 ± 0.15
17,TAAATAAATACATACACACACATACATATATATATA [CACACA_site3129],9.41 ± 0.39
18,TTATTGTTTATTAAATGTACAGATTCGTTAAAATTA [XGTACX_site3041],7.845 ± 0.064
19,TATTTTTTTGTGTTTGGTACACACGTTATAAAAAAT [XGTACX_site2655],8.15 ± 0.36
